Source: PubChem BioAssay AID504333 (National Center for Advancing Translational Sciences (NCATS), 2011)
The whole screen tested about 360,000 compounds, of which about 16,000 (4.4%) were called active. Inconclusive results, whose numbers are uncertain, are shown with a selection of clear calls. Calls follow the shape of the dose curve; as a rule, active = well fitted inhibition curve with a large enough effect; inconclusive = small, poorly fitted or top-dose-only effect; inactive = no such curve, though single readings can be large or run the other way. A potency beside an inconclusive call is a rough fit, not a confirmed value.

Target: Bromodomain adjacent to zinc finger domain protein 2B (Homo sapiens) (UniProt Q9UIF8)
Assay: qHTS Assay for Inhibitors of BAZ2B; also: nearly all actives have a fitted effect of over 60% in size
Settings: AlphaScreen BAZ2B-H3K14Ac peptide displacement; activity change, negative = inhibition: at 114 µM (top of the series) unless noted
In short: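 BAZ2B (50 nM) with biotin-H3(5-23)K14Ac peptide (50 nM) in PBS pH 7.4, 0.01% Tween-20, preformed 30 min, then compound 30 min at room temperature; top concentration 110uM. AlphaScreen streptavidin donor/nickel chelate acceptor beads (10 ug/mL final), 20 min dark, signal read.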
% is scaled to controls: 0 for no effect and ±100 for the full control effect; potency is read from the fitted curve at half-maximal effect; tags tell the direction and shape of the fitted curve.

Sequence of UniProt Q9UIF8 (Q9UIF8 whole entry, looked up, the tested form may be a part): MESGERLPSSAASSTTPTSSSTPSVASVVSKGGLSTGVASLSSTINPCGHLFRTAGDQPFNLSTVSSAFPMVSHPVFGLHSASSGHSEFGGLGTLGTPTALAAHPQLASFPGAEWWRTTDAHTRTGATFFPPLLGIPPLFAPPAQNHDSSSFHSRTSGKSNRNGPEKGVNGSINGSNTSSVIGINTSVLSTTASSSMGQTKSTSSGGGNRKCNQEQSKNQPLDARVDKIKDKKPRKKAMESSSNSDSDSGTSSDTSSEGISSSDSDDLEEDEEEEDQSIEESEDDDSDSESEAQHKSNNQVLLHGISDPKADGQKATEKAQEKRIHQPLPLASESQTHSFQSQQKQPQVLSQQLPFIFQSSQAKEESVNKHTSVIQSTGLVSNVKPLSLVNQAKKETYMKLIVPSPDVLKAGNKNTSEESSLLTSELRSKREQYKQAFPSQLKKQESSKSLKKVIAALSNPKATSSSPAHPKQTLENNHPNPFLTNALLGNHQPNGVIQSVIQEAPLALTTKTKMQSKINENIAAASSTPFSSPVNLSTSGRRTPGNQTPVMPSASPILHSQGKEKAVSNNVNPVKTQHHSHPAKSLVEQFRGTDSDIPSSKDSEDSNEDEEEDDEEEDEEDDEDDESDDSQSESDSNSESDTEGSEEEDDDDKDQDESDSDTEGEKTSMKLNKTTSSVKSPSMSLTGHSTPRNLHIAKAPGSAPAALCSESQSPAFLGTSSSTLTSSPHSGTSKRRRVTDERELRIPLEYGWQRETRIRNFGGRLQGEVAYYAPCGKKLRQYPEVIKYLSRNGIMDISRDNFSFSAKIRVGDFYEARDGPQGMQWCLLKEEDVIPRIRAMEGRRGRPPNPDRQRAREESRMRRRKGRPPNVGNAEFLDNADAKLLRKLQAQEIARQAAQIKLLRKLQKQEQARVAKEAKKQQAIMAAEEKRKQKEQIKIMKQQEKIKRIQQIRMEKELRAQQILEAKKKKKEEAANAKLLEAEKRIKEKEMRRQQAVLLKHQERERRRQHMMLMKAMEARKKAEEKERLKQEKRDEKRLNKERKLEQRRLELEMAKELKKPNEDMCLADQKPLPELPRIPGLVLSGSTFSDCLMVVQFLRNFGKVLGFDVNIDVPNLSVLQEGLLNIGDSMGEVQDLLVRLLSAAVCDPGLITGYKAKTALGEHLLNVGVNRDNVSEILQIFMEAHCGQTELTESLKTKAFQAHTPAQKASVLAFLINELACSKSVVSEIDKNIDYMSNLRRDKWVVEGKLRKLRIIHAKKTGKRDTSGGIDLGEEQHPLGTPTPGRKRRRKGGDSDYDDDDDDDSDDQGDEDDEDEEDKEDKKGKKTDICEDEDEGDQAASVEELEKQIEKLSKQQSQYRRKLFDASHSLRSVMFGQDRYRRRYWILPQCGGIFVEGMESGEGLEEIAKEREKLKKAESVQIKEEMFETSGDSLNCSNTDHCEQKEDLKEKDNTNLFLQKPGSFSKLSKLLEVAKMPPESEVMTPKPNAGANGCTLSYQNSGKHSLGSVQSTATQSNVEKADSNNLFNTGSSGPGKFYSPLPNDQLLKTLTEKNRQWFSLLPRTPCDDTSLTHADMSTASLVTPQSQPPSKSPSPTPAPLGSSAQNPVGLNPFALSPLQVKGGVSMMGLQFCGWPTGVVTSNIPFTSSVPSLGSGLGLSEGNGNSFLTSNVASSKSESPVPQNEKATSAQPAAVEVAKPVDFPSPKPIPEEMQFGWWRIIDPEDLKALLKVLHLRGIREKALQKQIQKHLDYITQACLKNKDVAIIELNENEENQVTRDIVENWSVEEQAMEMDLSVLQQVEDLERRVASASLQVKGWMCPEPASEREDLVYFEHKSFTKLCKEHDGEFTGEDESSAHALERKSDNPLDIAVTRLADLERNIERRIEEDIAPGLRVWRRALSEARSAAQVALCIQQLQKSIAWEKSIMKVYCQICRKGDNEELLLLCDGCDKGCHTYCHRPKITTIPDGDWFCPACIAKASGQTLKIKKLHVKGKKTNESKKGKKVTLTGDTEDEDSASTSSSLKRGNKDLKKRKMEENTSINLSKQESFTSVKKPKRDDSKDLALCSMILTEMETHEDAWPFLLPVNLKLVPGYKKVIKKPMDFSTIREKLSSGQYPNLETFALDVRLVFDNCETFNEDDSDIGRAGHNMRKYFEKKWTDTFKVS

Row | SMILES | activity change, negative = inhibition | Potency
1 | O=C(C1CCN(S(=O)(=O)c2cccs2)CC1)N1CCN(c2ccccc2F)CC1 | inactive: 2.67% | –
2 | CCOc1ccccc1-c1n[nH]c(=S)o1 | – | inconclusive: 79.4 µM [inhibitor, single point]
3 | CC(C)c1ccc(/C=C(\NC(=O)c2ccccc2)C(=O)NCCCn2ccnc2)cc1 | – | inconclusive: 70.8 µM [inhibitor, single point]
4 | O=C(NCc1cccs1)c1cc(-c2ccncc2)nc2ccc(Br)cc12 | – | inconclusive: 79.4 µM [inhibitor, partial curve]
5 | Nc1ccc2nc(-c3ccc(N)c(Cl)c3)[nH]c2c1 | – | inconclusive: 50.1 µM [inhibitor, partial curve]
6 | CC(C)COC(=O)N1CCCC1C(=O)Nc1nccs1 (centres undefined) | inactive: -34.8% | –
7 | CCn1c(CSc2nc3ccccc3[nH]2)n[nH]c1=S | inactive: -3.24% | –
8 | COc1cccc(CNC(=O)CN2C(=O)COc3ccc(S(=O)(=O)N4CCCCC4)cc32)c1 | – | inconclusive: 89.1 µM [inhibitor, single point]
9 | CCN(CC)c1ccc(CN(C(=O)c2cc(=O)c3ccccc3o2)C2CCS(=O)(=O)C2)cc1 (centres undefined) | – | inconclusive: 44.7 µM [inhibitor, partial curve]
10 | C[S+](CC[C@H](N)C(=O)O)C[C@H]1O[C@@H](n2cnc3c(N)ncnc32)[C@H](O)[C@@H]1O (some centres undefined) | inactive: 4.18% | –
11 | CCn1cc2nc(SCc3cc(C)ccc3C)n(Cc3ccc(Cl)cc3)c(=O)c2n1 | inactive: -1.89% | –
12 | CCOc1ccc(S(=O)(=O)Nc2cccc(C(=O)NCC(c3ccco3)N(C)C)c2)cc1 (centres undefined) | – | inconclusive: 89.1 µM [inhibitor, single point]
13 | CCCc1cc(=O)[nH]c(Nc2cc(Cl)cc(Cl)c2)n1 | inactive: -1.02% | –
14 | O=C(CN1C(=O)NC2(CCCCC2)C1=O)Nc1nc2c(F)cc(F)cc2s1 | inactive: 4.49% | –
15 | O=C(O)C1CCC(N2C(=O)c3c(Cl)c(Cl)c(Cl)c(Cl)c3C2=O)CC1 (centres undefined) | – | inconclusive: 89.1 µM [inhibitor, single point]
16 | NS(=O)(=O)c1cccc(NC(=O)COC(=O)Cc2ccc(S(=O)(=O)N3CCCCC3)s2)c1 | – | inconclusive: 79.4 µM [inhibitor, single point]
17 | CC(O)CCc1nc2ccc(C(=O)O)cc2[nH]1 (centres undefined) | – | inconclusive: 89.1 µM [inhibitor, single point]
18 | C#CCOCCOCCOCCNc1nc(N2CCOCC2)nc(N2CCN(C(=O)[C@H]([C@@H](C)O)n3cc(CCCCN)nn3)CC2)n1 | – | inconclusive: 89.1 µM [inhibitor, partial curve]
19 | CC1CN(CCCCOc2ccc(F)cc2)CC(C)O1 (centres undefined) | – | active: 50.1 µM
20 | CC1CCCC(NC(=O)CCC(=O)N2CCOc3ccccc32)C1C (centres undefined) | inactive: -4.24% | –
21 | CCOc1cc(N2CCOCC2)c(OCC)cc1NC(=O)COc1ncnc2ccccc12 | – | inconclusive: 12.6 µM [inhibitor, single point]
22 | Cc1cccc(Oc2ccc(NC(=O)C3CC=CCC3C(=O)O)cc2)c1 (centres undefined) | – | inconclusive: 56.2 µM [inhibitor, partial curve]
23 | O=C(N/C(=C/c1ccco1)C(=O)N1CCc2ccccc21)c1ccco1 | – | inconclusive: 39.8 µM [inhibitor, partial curve]
24 | O=C(NCCCN1CCN(c2ccc(F)cc2)CC1)Nc1ccccc1Cl | – | inconclusive: 79.4 µM [inhibitor, partial curve]
25 | CC(=O)OCCN(C)c1cc(SC(C)C)c2nonc2c1[N+](=O)[O-] | – | inconclusive: 50.1 µM [inhibitor, partial curve]

Row | SMILES | activity change, negative = inhibition | Potency
26 | CCOC(=O)c1c(C)[nH]c(C)c1C(=O)COC(=O)/C=C/c1cccc(Cl)c1 | – | inconclusive: 44.7 µM [inhibitor, partial curve]
27 | COC(=O)CSc1cnc2ccccc2n1 | – | inconclusive: 89.1 µM [inhibitor, single point]
28 | COc1cc(OC)c2ccc(=O)oc2c1C(CC(=O)N1CCCC(C)C1)c1ccc2c(c1)OCO2 (centres undefined) | – | active: 50.1 µM
29 | O=C1[C@@H]2Cc3c([nH]c4ccccc34)[C@@H](c3ccccc3)N2C(=O)[C@@H]2Cc3c([nH]c4ccccc34)[C@@H](c3ccccc3)N12 | – | inconclusive: 79.4 µM [inhibitor, single point]
30 | Oc1ccc(Br)cc1/C=N/N1CCN(Cc2cccc3ccccc23)CC1 | inactive: -38.5% | –
31 | Cc1ccc(NC(=O)CN(C)C(=O)CCC(=O)c2cccs2)cc1 | – | inconclusive: 56.2 µM [inhibitor, partial curve]
32 | Cc1ccc(/C=C/C(=O)N2CC(=O)Nc3ccccc32)o1 | – | inconclusive: 79.4 µM [inhibitor, partial curve]
33 | C=CCNc1nc(C)c(C(C)=O)cc1C#N | – | active: 50.1 µM
34 | CCOC(=O)c1c(N)n(-c2ccc(OCC)cc2)c2nc3ccccc3nc12 | inactive: -0.62% | –
35 | O=c1[nH]cnc2c1N=C(c1cccc([N+](=O)[O-])c1)CC(c1ccccc1)N2 (centres undefined) | – | inconclusive: 79.4 µM [inhibitor, partial curve]
36 | Cc1cc(CN(C)Cc2ccc(OCC(O)CN(C)Cc3ccccc3)cc2)on1 (centres undefined) | inactive: -15.2% | –
37 | O=C(CSc1nnc(-c2ccc(Cl)cc2)n1Cc1ccco1)NCc1ccc2c(c1)OCO2 | – | inconclusive: 79.4 µM [inhibitor, single point]
38 | CN1CCN(CCCNC(=O)c2ccc(/C=C3\Sc4ccccc4N(Cc4ccccc4F)C3=O)cc2)CC1 | – | inconclusive: 20 µM [inhibitor, full curve]
39 | CCCn1c(=O)c(Cc2ccccc2)c(O)c2ccccc21 | inactive: 8.89% | –
40 | Cc1cc(C)c2c(NC(=O)c3ccccc3Cl)c(C(=O)NCc3ccc(Cl)cc3)sc2n1 | – | inconclusive: 89.1 µM [inhibitor, single point]
41 | O=C(c1n[nH]c2c1CCCC2)n1ccnc1 | inactive: -1.75% | –
42 | COC(=O)c1c(NC(=O)COC(=O)CCS(=O)(=O)c2ccc(C)cc2)sc(C)c1C | inactive: 2.47% | –
43 | CN(CC(=O)Nc1c(Cl)cccc1Cl)C(=O)CCC1CCCC1 | inactive: 2.21% | –
44 | Cc1cc(C)n2ncc(C(=O)O)c2n1 | – | inconclusive: 79.4 µM [inhibitor, single point]
45 | COc1ccccc1-c1nnc(NC(=O)c2cccc(N3C(=O)CCC3=O)c2)o1 | – | active: 25.1 µM
46 | Cc1cccc(C(=O)n2c(=S)nc3cc(C)ccn32)c1 | inactive: -40.4% | –
47 | O=C(/C(=N\Nc1ccccc1)Sc1nnnn1-c1ccccc1)c1ccccc1 | – | inconclusive: 79.4 µM [inhibitor, partial curve]
48 | O=C(Nc1nc2ccc(F)cc2s1)c1ccccn1 | – | active: 39.8 µM
49 | CC(C)Oc1ccc(C(=O)N(Cc2ccc(N(C)C)cc2)Cc2ccco2)cc1 | – | active: 12.6 µM
50 | Cc1c(C)n(Cc2ccccc2)c2ccc(C(=O)N3CCN(c4ccccc4)CC3)cc12 | – | inconclusive: 17.8 µM [inhibitor, full curve]

Row | SMILES | activity change, negative = inhibition | Potency
51 | CCN(CC)C(=O)Cn1nnc(-c2ccc(C)o2)n1 | inactive: -5.91% | –
52 | CCc1cc(CNC(=O)c2ccc3nc(Cc4ccc(OC)c(OC)c4)oc3c2)on1 | inactive: -5.29% | –
53 | Cc1ccc(S(=O)(=O)N2CCCCC2)cc1NC(=O)c1ccc2ccccc2n1 | – | inconclusive: 89.1 µM [inhibitor, single point]
54 | O=C(CN1CCOCC1)Nc1nc(-c2ccc3c(c2)CCN3S(=O)(=O)c2ccccc2)cs1 | – | inconclusive: 79.4 µM [inhibitor, single point]
55 | CCn1c(C)nc2cc(C(=O)NNC(=O)Nc3ccc(Cl)cc3)ccc21 | – | inconclusive: 89.1 µM [inhibitor, single point]
56 | O=C(COc1ccccc1F)Nc1ccc2nc(SCC(=O)N3CCOCC3)sc2c1 | inactive: -25.9% | –
57 | O=C(COC(=O)c1ccc2ccccc2c1O)NCC(F)(F)F | – | active: 79.4 µM
58 | Cc1ccc(CSc2nnc([C@@H]3CCCN3C(=O)OC(C)(C)C)o2)cc1 | inactive: -0.0312% | –
59 | O=C(c1ccc(CSc2nc3ccncc3[nH]2)cc1)N1CCCCCC1 | inactive: -12% | –
60 | Cc1nc(CC(C)C)cc(C(=O)N2CCCC(CNS(=O)(=O)c3cccs3)C2)n1 (centres undefined) | inactive: -13.8% | –
61 | O=c1c(C=NCCCn2ccnc2)c(-c2ccccc2)[nH]n1-c1nc2ccccc2s1 | – | inconclusive: 17.8 µM [inhibitor, full curve, poor fit]
62 | COc1ccc(-c2cn3cc(C)ccc3n2)cc1F | – | inconclusive: 89.1 µM [inhibitor, single point]
63 | COC(=O)c1ccccc1NC(=O)CNc1cc(OC)c(OC)cc1C | – | active: 44.7 µM
64 | Nc1ccc(C(=O)OCC(=O)N2c3ccccc3Sc3ccccc32)cc1[N+](=O)[O-] | inactive: -37.6% | –
65 | Cc1ccc(CN2C(=O)c3ccccc3Sc3ccc(C(=O)N4CCOCC4)cc32)cc1 | inactive: -12.3% | –
66 | Cc1cccc(C(=O)Nc2ccc(N3CC=C(c4ccccc4C)CC3)c(C(=O)O)c2)c1 | – | active: 44.7 µM
67 | CC(C)NC(=O)c1ccc2c(c1)N(CC(=O)N1CCCCC1)C(=O)C(C)(C)O2 | inactive: 1.92% | –
68 | CNC(=S)N/N=C/c1c(C)c(C(=O)c2ccc(F)cc2)n2ccccc12 | inactive: -19.1% | –
69 | CCOC(=O)C(=O)/C(C#N)=C/Nc1ccc(F)cc1 | – | inconclusive: 89.1 µM [inhibitor, single point]
70 | CCCCN(CCCC)S(=O)(=O)c1ccc(NC(=O)Cc2cccs2)cc1 | – | inconclusive: 79.4 µM [inhibitor, single point]
71 | Cc1nc2c(C)cccc2cc1C(=O)N/N=C/c1ccc(C(=O)O)cc1 | – | inconclusive: 79.4 µM [inhibitor, single point]
72 | CCNC(=O)COC(=O)CCNC(=O)c1cccc(C)c1 | – | inconclusive: 89.1 µM [inhibitor, single point]
73 | Cc1cc(C2C(C#N)=C(N)SC(N)=C2C#N)c(C)s1 | inactive: -6.06% | –
74 | CCc1ccc(CN2CCN(C(=O)c3ccco3)CC2)cc1 | – | active: 31.6 µM
